The list shows a part of the results. Sequences were assembled here from the parent chain. Inactive controls read about 0.05.
B1: TEV protease; numbered along this chain (parent)
chain: MGESLFKGPRDYNPISSSICHLTNESDGHTTSLYGIGFGPFIITNKHLFRRNNGTLVVQSLHGVFKVKDTTTLQQHLVDGRDMIIIRMPKDFPPFPQKLKFREPQREERICLVTTNFQTKSMSSMVSDTSCTFPSGDGIFWKHWIQTKDGQCGSPLVSTRDGFIVGIHSASNFTNTNNYFTSVPKNFMELLTNQEAQQWVSGWRLNADSVLWGGHKVFMVKPEEPFQPVKEATQL

Variants of: B1
Assay: raw area under fraction-flipped curve 0-4 h after induction (AUC4h, not background-subtracted), DNA-recorder readout of cleavage of the substrate (dimensionless); higher = more cleavage of the substrate by the protease variant
Conditions: temperature: 34 °C; time window: 0-4 h after rhamnose induction
Protocol: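 In vivo DNA recorder in E. coli TOP10(DE3) ΔrhaA at 34 °C. Each TEVp single-site mutant (parent TEVp 0) is paired with a single-site variant of the 7-mer TEVs (canonical ENLYFQ|S). The substrate sits between flexible linkers in a Bxb1-sfGFP-TEVs-SsrA fusion, so cleavage stabilises Bxb1 and speeds flipping of a recombination array, read by NGS. The value is the raw area under the fraction-flipped curve over 0-4 h after rhamnose induction (AUC4h), with ≥20 reads per time point. It is not background-subtracted; inactive controls average about 0.047.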
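Also: Bxb1 expression induced with 0.2% (w/v) L-rhamnose at OD600 near 0.5, cultures sampled hourly, flipped fraction per protease–substrate barcode pair counted by paired-end Illumina sequencing.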

Variant | area with substrate ENLYCQS | area with substrate ENLYDQS | area with substrate ENLYEQS | area with substrate ENLYGQS | area with substrate ENLYHQS | area with substrate ENLYKQS | area with substrate ENLYMQS | area with substrate ENLYNQS | area with substrate ENLYPQS | area with substrate ENLYQQS | area with substrate ENLYRQS | area with substrate ENLYSQS | area with substrate ENLYVQS | area with substrate ENLYWQS | area with substrate ENLYYQS | area with substrate ENLYIQS | area with substrate ENLYLQS | area with substrate ENLYTQS | area with substrate ENLYAQS
I110F | 0.0587 | 0.0508 | 0.0439 | 0.0425 | 0.0516 | 0.0267 | 0.0588 | 0.0641 | 0.052 | 0.054 | 0.0475 | 0.0578 | 0.054 | 0.0521 | 0.0411 |  |  |  | 
N45G | 0.0698 | 0.0671 | 0.0604 | 0.0616 | 0.0613 | 0.0396 | 0.0568 | 0.0596 | 0.0613 |  | 0.0761 |  |  | 0.0709 | 0.083 | 0.0587 | 0.0686 | 0.0681 | 
V220S |  | 0.0685 | 0.0818 | 0.0653 |  |  |  | 0.0798 | 0.0525 |  | 0.0739 | 0.0679 |  | 0.0978 |  |  |  |  | 0.0836
G153T | 0.03 |  |  | 0.0412 | 0.0621 | 0.0353 | 0.056 | 0.0513 |  | 0.0473 |  | 0.0536 |  |  |  |  | 0.0458 | 0.0511 | 
T129D | 0.0772 |  | 0.0473 |  |  |  | 0.0792 | 0.0617 |  | 0.0601 |  |  |  |  |  | 0.131 |  |  | 
E195T | 0.0545 |  |  | 0.0554 | 0.0758 | 0.123 |  |  | 0.0705 | 0.0729 |  |  |  |  |  | 0.111 |  |  | 
G138W | 0.0995 | 0.0515 |  | 0.0294 | 0.0725 | 0.0677 |  |  | 0.0599 |  | 0.0684 |  | 0.106 |  |  |  |  |  | 
L205Y |  | 0.0456 | 0.0775 |  |  |  | 0.0634 | 0.0574 |  | 0.0697 | 0.0625 | 0.0611 |  | 0.0694 | 0.0705 | 0.0734 |  | 0.0702 | 0.0673
L190T | 0.0926 |  |  | 0.077 |  |  |  | 0.0848 | 0.0607 |  | 0.0576 |  | 0.105 |  | 0.0445 |  |  |  | 
L190D | 0.0828 | 0.0558 | 0.0839 | 0.0616 | 0.0689 | 0.0335 | 0.0903 | 0.0918 | 0.0704 |  |  | 0.0833 | 0.0701 |  | 0.0429 |  | 0.0641 | 0.0418 | 
P93D | 0.103 |  | 0.0662 | 0.0466 | 0.0654 | 0.0581 | 0.0698 | 0.0713 | 0.0622 |  | 0.0629 |  |  |  | 0.0566 | 0.109 |  |  | 
P93K | 0.0666 |  |  |  | 0.054 |  |  |  | 0.0527 |  |  | 0.0907 | 0.0676 |  |  |  |  | 0.0583 | 
R87V | 0.0872 | 0.0837 | 0.0641 | 0.0608 |  |  |  |  | 0.0677 | 0.0625 |  | 0.0614 | 0.0751 | 0.0748 |  |  |  |  | 
D91S | 0.0758 |  |  |  |  | 0.076 | 0.0719 | 0.0611 | 0.0679 | 0.0304 | 0.0629 | 0.0769 |  | 0.0608 | 0.0896 | 0.179 |  |  | 
A170S | 0.0811 | 0.0436 | 0.0494 |  | 0.044 |  | 0.0527 | 0.0501 | 0.0419 |  | 0.0606 | 0.0647 | 0.0912 | 0.0471 |  |  |  |  | 
K185L | 0.0901 | 0.0539 | 0.0608 | 0.0662 |  |  |  | 0.0945 |  | 0.056 |  | 0.0851 |  |  | 0.0689 |  |  |  | 
S124G | 0.0874 | 0.0555 | 0.057 | 0.0922 | 0.0748 |  | 0.0819 | 0.0607 | 0.0395 |  | 0.0642 | 0.0762 |  |  |  |  |  | 0.0807 | 

Variant | area with substrate ENLYCQS | area with substrate ENLYDQS | area with substrate ENLYEQS | area with substrate ENLYGQS | area with substrate ENLYHQS | area with substrate ENLYKQS | area with substrate ENLYMQS | area with substrate ENLYNQS | area with substrate ENLYPQS | area with substrate ENLYQQS | area with substrate ENLYRQS | area with substrate ENLYSQS | area with substrate ENLYVQS | area with substrate ENLYWQS | area with substrate ENLYYQS | area with substrate ENLYIQS | area with substrate ENLYLQS | area with substrate ENLYTQS | area with substrate ENLYAQS
D149P | 0.0828 | 0.0495 | 0.0557 | 0.081 |  | 0.0659 |  |  | 0.0702 | 0.0623 |  | 0.0594 | 0.0895 |  | 0.0291 |  |  |  | 
V78N | 0.0425 |  | 0.0597 |  | 0.0525 | 0.0773 | 0.0724 | 0.0593 |  |  | 0.0462 |  | 0.0462 | 0.0638 | 0.0589 |  | 0.0577 |  | 
T44M | 0.0528 | 0.0503 | 0.0621 | 0.053 | 0.0617 | 0.0588 | 0.0567 | 0.066 | 0.0471 | 0.0478 | 0.0919 | 0.0258 | 0.0669 |  | 0.0478 | 0.0637 | 0.0649 | 0.0805 | 
L191Q | 0.0543 | 0.0698 | 0.0489 |  | 0.0629 | 0.0586 | 0.0605 | 0.0489 | 0.0355 | 0.0553 |  |  | 0.0646 |  |  |  | 0.0848 | 0.0808 | 
D82M | 0.0389 | 0.0476 | 0.0579 |  | 0.0723 |  | 0.0501 | 0.0557 | 0.0617 | 0.0528 |  |  | 0.0413 | 0.0505 |  |  | 0.0509 |  | 
W203S | 0.0719 | 0.0607 | 0.0727 |  | 0.0617 | 0.0786 |  |  |  |  | 0.0617 |  | 0.0679 | 0.0596 |  | 0.0543 |  |  | 
W203P |  | 0.0568 | 0.0785 |  | 0.0589 | 0.0682 | 0.0764 | 0.062 | 0.0611 |  |  |  | 0.079 |  |  |  |  |  | 0.0432
Y34H | 0.0832 |  | 0.053 | 0.0768 | 0.0531 |  |  |  | 0.0896 |  |  | 0.0737 |  |  | 0.0684 |  |  |  | 
G150Y | 0.0555 |  | 0.0621 |  | 0.0491 | 0.0237 | 0.0447 | 0.0544 | 0.0608 |  | 0.0553 | 0.0541 | 0.0593 |  |  | 0.0547 | 0.0697 |  | 
G150A | 0.0572 |  | 0.0678 |  | 0.0548 |  |  |  |  |  |  |  |  |  |  | 0.087 |  |  | 
G35V | 0.0412 | 0.0294 | 0.0466 |  |  | 0.0452 | 0.0376 |  | 0.0308 |  |  | 0.0462 | 0.0582 | 0.0428 | 0.0424 | 0.0368 |  | 0.0551 | 
P222L |  | 0.0651 | 0.0618 |  | 0.0802 | 0.058 |  | 0.055 |  | 0.0477 |  |  | 0.0938 | 0.0631 | 0.0459 |  | 0.0826 |  | 0.115
N178S | 0.0612 | 0.0582 |  | 0.0851 | 0.0565 | 0.0619 | 0.0783 | 0.0564 |  | 0.059 |  |  | 0.099 |  |  | 0.126 |  |  | 
H215F | 0.0808 | 0.0467 | 0.0638 | 0.058 | 0.0552 | 0.0172 | 0.0627 |  | 0.0478 |  | 0.0493 |  | 0.068 |  |  |  |  | 0.0798 | 
I139T | 0.0924 | 0.0223 |  | 0.0411 |  |  |  |  |  |  | 0.0738 |  |  |  |  |  |  | 0.106 | 
T159V | 0.103 | 0.0513 |  | 0.0565 | 0.0573 |  |  | 0.0602 |  | 0.0536 |  | 0.0982 |  |  |  |  |  | 0.0616 | 
A196V | 0.111 | 0.047 |  |  | 0.0619 |  |  |  | 0.0904 | 0.0634 | 0.0471 |  |  | 0.084 |  | 0.111 |  |  | 
